Data as given in PMC4336329 (PLoS ONE, 2015).
The whole screen tested about 310,000 compounds, of which about 14,000 (4.5%) showed an effect of 50% or more. The effect is printed as a negative number. This is one part of the list.

What follows are compounds tested against human ether-à-go-go-related gene (hERG) potassium channel (human, UniProt Q12809) (assay: primary screen, population patch clamp on CHO cells stably expressing hERG).
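Note: peak tail current of the secondary pulse compared with the same well before compound.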

Chain of human ether-à-go-go-related gene (hERG) potassium channel (Q12809 whole entry, looked up): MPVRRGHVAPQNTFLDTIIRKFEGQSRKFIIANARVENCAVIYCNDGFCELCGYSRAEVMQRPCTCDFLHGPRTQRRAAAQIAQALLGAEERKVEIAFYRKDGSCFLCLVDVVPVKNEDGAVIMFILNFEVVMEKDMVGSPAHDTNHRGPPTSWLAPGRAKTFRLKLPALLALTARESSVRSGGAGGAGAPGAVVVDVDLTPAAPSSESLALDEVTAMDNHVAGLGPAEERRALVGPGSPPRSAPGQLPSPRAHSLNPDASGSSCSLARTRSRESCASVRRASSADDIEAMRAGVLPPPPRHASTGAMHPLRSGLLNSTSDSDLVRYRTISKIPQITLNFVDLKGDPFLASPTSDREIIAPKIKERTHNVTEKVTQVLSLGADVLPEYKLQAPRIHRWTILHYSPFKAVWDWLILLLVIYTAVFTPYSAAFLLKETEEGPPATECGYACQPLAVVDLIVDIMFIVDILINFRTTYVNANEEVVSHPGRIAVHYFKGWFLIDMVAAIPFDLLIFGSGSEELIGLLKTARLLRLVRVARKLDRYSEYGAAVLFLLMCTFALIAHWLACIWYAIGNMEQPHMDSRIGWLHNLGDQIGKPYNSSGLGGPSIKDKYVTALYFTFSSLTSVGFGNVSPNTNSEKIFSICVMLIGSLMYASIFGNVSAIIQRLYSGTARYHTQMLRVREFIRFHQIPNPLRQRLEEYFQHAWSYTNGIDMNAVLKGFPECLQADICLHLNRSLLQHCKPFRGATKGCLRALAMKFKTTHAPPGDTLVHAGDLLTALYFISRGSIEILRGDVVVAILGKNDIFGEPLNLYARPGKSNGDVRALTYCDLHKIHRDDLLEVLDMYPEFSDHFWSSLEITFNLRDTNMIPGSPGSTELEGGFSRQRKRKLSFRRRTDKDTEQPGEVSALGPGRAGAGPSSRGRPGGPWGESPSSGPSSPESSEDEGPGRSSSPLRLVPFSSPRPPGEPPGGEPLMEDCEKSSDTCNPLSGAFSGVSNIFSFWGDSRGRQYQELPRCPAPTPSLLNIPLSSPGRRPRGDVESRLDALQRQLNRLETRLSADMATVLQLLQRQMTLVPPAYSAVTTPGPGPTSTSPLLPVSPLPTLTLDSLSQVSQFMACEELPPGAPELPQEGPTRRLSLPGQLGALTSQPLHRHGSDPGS

| Structure (SMILES) | hERG current change (%, negative = inhibition) at 10uM [%] |
| --- | --- |
| CCC(=O)Nc1ccc(S(=O)(=O)Nc2ccc(Cl)nn2)cc1.Cl | 11.7 |
| CCOc1ccc(C2=CSC3=NCCN23)cc1[N+](=O)[O-] | -75.5 |
| Cn1c(N)c(C(=O)COC(=O)CCc2ccccc2)c(=O)n(C)c1=O | -0.0468 |
| CC(=O)O[C@H]1C[C@@]2(C)[C@@H](C[C@@H](O)[C@H]3[C@@]4(C)CC[C@@H](O)[C@@H](C)[C@@H]4CC[C@@]32C)/C1=C(\CCC=C(C)C)C(=O)O | 0.478 |
| COc1ccccc1/C=C1/C(=O)N(c2ccccc2)N=C1C | 2.5 |
| CCOc1ccccc1CN1CCNC(=O)C1CC(=O)NC1CCCCCCC1 (centres unmarked) | -7.18 |
| O=C(O)c1ccc(N2C(=O)CC(SC(=Nc3ccccc3)Nc3ccccc3)C2=O)cc1 (centres unmarked) | 7.3 |
| O=C(CCC1CCCC1)NC1CCCCC1 | -8.09 |
| O=C(O)C1C2C=CC(C2)C1C(=O)NCc1ccc2c(c1)OCO2 (centres unmarked) | -6.95 |
| CN(C(=O)NC1CCCCC1)c1ccccc1 | 19.8 |
| CCOc1ccc(OCC(=O)N(CCC2=CCCCC2)c2c(N)n(Cc3ccccc3)c(=O)[nH]c2=O)cc1 | -2.91 |
| Cc1ccc(NC(=O)COC(=O)c2cc(C)nc3ccccc23)c([N+](=O)[O-])c1 | 10.5 |
| CCCCN1CC[C@H]2C=CC[C@@H](C(=O)Nc3ccc(OC)cc3)[C@H]2C1=O | -26.1 |
| CCOCCCNC(=O)COc1ccc(OC)cc1 | 13.2 |
| CCOc1ccc(C(=O)Nc2cccc(-c3cc4ccccc4oc3=O)c2)cc1[N+](=O)[O-] | 6.3 |
| Cc1ccccc1C(=O)NCCn1cc(SCC(=O)NCC2CCCO2)c2ccccc21 (centres unmarked) | -3.71 |
| CCN(CC)C(=S)Nc1cc(C(=O)OC)ccc1C(=O)OC | 9.5 |
| COc1cccc(-c2cc(C(=O)N3CCCCC3C)no2)c1 (centres unmarked) | 3.5 |
| CCCOc1ccc(OCCCCNC(C)CC)cc1.O=C(O)C(=O)O (centres unmarked) | -18.9 |
| Cn1c(=O)cc(OCCCC(=O)NCCCN2CCN(Cc3ccccc3)CC2)c2ccccc21 | -28.3 |
| CCOC(=O)c1c(C)[nH]c(C(=O)CSc2nnc(CC(C)c3ccccc3)o2)c1C (centres unmarked) | -1.18 |
| C=CCn1c(O)c(C=Nc2c(C)n(C)n(-c3ccccc3)c2=O)c(=O)[nH]c1=O | -81.6 |

| Structure (SMILES) | hERG current change (%, negative = inhibition) at 10uM [%] |
| --- | --- |
| Cn1nc(C(=O)NCc2ccc(F)cc2)c2c1-c1ccccc1S(=O)(=O)C2 | -44.9 |
| O=C(NCc1ccc(F)cc1)C(=O)NCC1OCCCN1S(=O)(=O)c1cccs1 (centres unmarked) | -15.9 |
| O=C(O)CCSc1nc2ccccc2n1Cc1ccccc1 | 24.1 |
| CC(C)(C)C(=O)O/N=C(\N)c1ccc(Br)cc1 | 7.57 |
| CC(C)NC(=O)Cn1cnc2c(cnn2-c2ccc(F)cc2)c1=O | 10.8 |
| COC(=O)c1cn(CC(=O)N2CCCCC2C)c2ccccc12 (centres unmarked) | 4.23 |
| Cc1c(C)n(Cc2ccc(F)cc2)c2ccc(C(=O)NCCCN3CCOCC3)cc12 | -35.7 |
| COc1ccccc1OCCC(=O)OCCN1C(=O)c2ccccc2C1=O | -8.27 |
| CCN(CC)CCN(C(=O)c1cc2ccccc2cc1OC)c1nc2ccc(F)cc2s1.Cl | -11.8 |
| COC(=O)c1c(N)c2ccccc2[nH]c1=O | 9.93 |
| N#C/C(=N\Nc1ccccc1F)c1nc(-c2ccccc2)cs1 | 7.51 |
| COc1ccc(/C=C/C(=O)O/N=C(\N)c2cccnc2)cc1OC | -5.84 |
| COc1ccccc1CNC(=O)C1CCN(Cc2nc(-c3cccc(Cl)c3)oc2C)CC1 | -78 |
| CC(=O)Nc1ccc(S(=O)(=O)Nc2nc(CN3CCOCC3)nc3sc4c(c23)CCCC4)cc1 | -4 |
| CCNc1ccc2c(Cl)cc(=O)oc2c1 | 8.16 |
| O=C(CN1C(=O)CCSc2ccccc21)Nc1cccc(F)c1 | -14.9 |
| Cc1cc(C)n(-c2ncc(-c3ccccc3)nn2)n1 | -36.4 |
| CN(C)CCCN(C(=O)c1cc(-c2cccs2)nc2ccccc12)c1nc2ccc(F)cc2s1.Cl | 5.59 |
| COc1ccccc1-c1cc(C2CC2)nc(N)c1C#N | 4.94 |
| CC1CCCCN1C(=O)c1cc2c(=O)n3ccccc3nc2s1 (centres unmarked) | 8.32 |
| Nc1c(C(=O)OCC2CCCO2)c2nc3ccccc3nc2n1Cc1cccs1 (centres unmarked) | -27.9 |
| O=S(=O)(NC1CCCCC1)c1ccc(F)c2ccccc12 | 0.801 |
